Reference: publication PMC4336329 (PLoS ONE, 2015)
The campaign covered roughly 310,000 compounds. About 14,000 (4.5%) showed an effect of 50% or more. Effects have a minus sign here. Some of the results follow.

What follows are compounds tested against human ether-à-go-go-related gene (hERG) potassium channel (human, UniProt Q12809) (assay: primary screen, population patch clamp on CHO cells stably expressing hERG).
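Note: peak tail current of the secondary pulse compared with the same well before compound.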

human ether-à-go-go-related gene (hERG) potassium channel, sequence (Q12809 whole entry, looked up): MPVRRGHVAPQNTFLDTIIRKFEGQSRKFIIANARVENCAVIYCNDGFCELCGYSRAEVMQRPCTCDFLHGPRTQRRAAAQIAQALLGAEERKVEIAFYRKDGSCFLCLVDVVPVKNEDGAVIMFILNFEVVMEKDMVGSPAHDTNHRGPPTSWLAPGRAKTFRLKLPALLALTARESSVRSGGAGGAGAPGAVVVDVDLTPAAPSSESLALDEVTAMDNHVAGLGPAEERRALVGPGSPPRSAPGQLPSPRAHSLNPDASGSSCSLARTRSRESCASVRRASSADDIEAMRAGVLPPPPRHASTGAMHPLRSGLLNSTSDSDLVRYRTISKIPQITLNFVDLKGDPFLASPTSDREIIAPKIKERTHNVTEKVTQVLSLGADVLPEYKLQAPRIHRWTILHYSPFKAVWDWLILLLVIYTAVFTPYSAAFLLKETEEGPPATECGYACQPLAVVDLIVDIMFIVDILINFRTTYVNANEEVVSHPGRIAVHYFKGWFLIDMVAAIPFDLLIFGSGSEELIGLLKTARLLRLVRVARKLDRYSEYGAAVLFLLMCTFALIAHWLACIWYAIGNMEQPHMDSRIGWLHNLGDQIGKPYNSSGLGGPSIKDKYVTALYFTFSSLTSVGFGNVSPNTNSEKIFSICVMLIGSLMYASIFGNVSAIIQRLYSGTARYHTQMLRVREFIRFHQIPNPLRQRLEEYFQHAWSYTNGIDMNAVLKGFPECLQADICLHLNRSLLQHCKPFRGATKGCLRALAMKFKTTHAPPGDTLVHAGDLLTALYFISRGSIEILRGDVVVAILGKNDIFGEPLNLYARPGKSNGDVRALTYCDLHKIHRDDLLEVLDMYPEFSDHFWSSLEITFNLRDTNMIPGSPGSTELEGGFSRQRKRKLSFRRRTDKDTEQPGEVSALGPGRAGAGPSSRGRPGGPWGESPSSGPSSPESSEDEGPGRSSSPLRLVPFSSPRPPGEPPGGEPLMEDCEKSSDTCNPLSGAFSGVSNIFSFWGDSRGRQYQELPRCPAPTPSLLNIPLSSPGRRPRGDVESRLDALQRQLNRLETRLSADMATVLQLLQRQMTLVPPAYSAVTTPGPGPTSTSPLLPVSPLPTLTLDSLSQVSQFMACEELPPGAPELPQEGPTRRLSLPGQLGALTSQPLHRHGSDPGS

Going from `O=C(NC1=NCCS1)c1cc(Cl)ccc1Cl` to `O=C(NC(=S)Nc1cccnc1Cl)c1ccc(Cl)cc1`, the “hERG current change (%, negative = inhibition) at 10uM” value rises from -24% to 15.5%.

Going from `COc1ccc(CN2CCC(n3nccc3NC(=O)C3CCCC3)CC2)cc1` to `CC(C)CNS(=O)(=O)c1ccc(S(=O)(=O)N2CCN(C3CCCC3)CC2)cc1`, the “hERG current change (%, negative = inhibition) at 10uM” value rises from -68.9% to 3.47%.

First: NC(=O)[C@@H]1CCCCNc2c(F)cc([N+](=O)[O-])cc2C(=O)N[C@@H](CCCN=C(N)N)C(=O)NCC(=O)N1
Second: Cc1cccc([N+](=O)[O-])c1NC(=O)COC(=O)C1CCCO1 (stereo not drawn)
The “hERG current change (%, negative = inhibition) at 10uM” value of the first is lower: 15.5% for the first, 20.1% for the second.

Going from `COc1cc(OC)c(C(=O)Nc2ccc(N(C)C)cc2)cc1OC` to `COc1ccc(NC(=O)CSc2nc(C)cs2)cc1OC`, the “hERG current change (%, negative = inhibition) at 10uM” value falls from 1.22% to -1.36%.

Compared with `COc1ccccc1CN1CCc2c([nH]c3ccccc23)C1`, `Cc1ccccc1-n1c(C)nnc1SCC(=O)N1CC(=O)Nc2ccccc21` is higher in “hERG current change (%, negative = inhibition) at 10uM” value: -23% for the first, 0.973% for the second.

Going from `Cc1c(Cl)cccc1NC(=O)Cn1cccc1` to `Cc1c(NC(=O)Cn2cc([N+](=O)[O-])cn2)c(=O)n(-c2ccccc2)n1C`, the “hERG current change (%, negative = inhibition) at 10uM” value rises from -3.82% to 11.7%.

First: COCc1cc(=O)[nH]c(Nc2nc(C)c3ccccc3n2)n1
Second: Cc1ccccc1Nc1cc(C)c2c(O)cccc2n1
The “hERG current change (%, negative = inhibition) at 10uM” value of the first is higher: -8.74% for the first, -20.2% for the second.

First: N#Cc1nc(-c2ccccc2F)oc1NC1CCCCC1
Second: CSc1ccccc1-c1nnc(NC(=O)Cc2ccccc2)o1
The “hERG current change (%, negative = inhibition) at 10uM” value of the first is lower: -9.17% for the first, 11.5% for the second.

First: O=C(NC(NC(=S)Nc1cccc(Cl)c1)C(Cl)(Cl)Cl)OCc1ccccc1 (stereo not drawn)
Second: COc1ccc(C(=O)OC(C)C(=O)NC(C)CCc2ccccc2)cc1[N+](=O)[O-] (stereo not drawn)
The “hERG current change (%, negative = inhibition) at 10uM” value of the first is higher: 12% for the first, -7.64% for the second.

Compared with `CCOC(=O)c1ccc(NC(=O)c2cccc(S(=O)(=O)N3c4ccccc4CC3C)c2)s1` (stereo not drawn), `CC(C)Oc1cccc(C(=O)Nc2ccccc2N2CCOCC2)c1` is lower in “hERG current change (%, negative = inhibition) at 10uM” value: 15% for the first, -28.3% for the second.

Going from `COc1ccc(C=O)cc1` to `COc1cc(OC)nc(Oc2cc(C=O)ccc2OC)n1`, the “hERG current change (%, negative = inhibition) at 10uM” value falls from 13.9% to -3.55%.

Going from `COC(c1ccccc1)(c1ccccc1)C(Oc1nc(C)cc(C)n1)C(=O)O` (stereo not drawn) to `O=C(NC(=O)c1ccccc1)OCCN1C(=O)c2ccccc2C1=O`, the “hERG current change (%, negative = inhibition) at 10uM” value falls from 24.8% to -24%.

First: Cn1c(SCCC(=O)O)nnc1-c1ccncc1
Second: O=C(Nc1ccccn1)c1ccc(=O)[nH]n1
The “hERG current change (%, negative = inhibition) at 10uM” value of the first is higher: 1.73% for the first, -0.517% for the second.

Compared with `COc1ccc(C2C(C(=O)c3cccs3)=C(O)C(=O)N2c2nncs2)cc1` (stereo not drawn), `COc1ccc(CCNC(=O)CCCn2c(=O)c3cccn3c3cccnc32)c(OC)c1` is lower in “hERG current change (%, negative = inhibition) at 10uM” value: 6.77% for the first, 1.9% for the second.

Going from `CCn1c(C)c(C(C)=O)cc(C#N)c1=O` to `CCOc1ccc(OCC)c(NC(=O)CCS(=O)(=O)c2ccc(C)cc2)c1`, the “hERG current change (%, negative = inhibition) at 10uM” value falls from -4.92% to -10.7%.

First: CCCc1nn2c(=O)cc(CSCC(=O)Nc3nnc(CC)s3)nc2s1
Second: Cc1sc2nc(CSCC(=O)Nc3ccc(C(=O)N(C)C)cc3)[nH]c(=O)c2c1C
The “hERG current change (%, negative = inhibition) at 10uM” value of the first is lower: 15.5% for the first, 17.2% for the second.

Going from `Cc1cc(=O)cc(C)n1-c1ccccc1N1CCOCC1` to `O=C(O)c1ccccc1NC(=O)N1CCOCC1`, the “hERG current change (%, negative = inhibition) at 10uM” value falls from 16.7% to 8.57%.

Going from `O=c1oc(-c2ccco2)nc2sc3c(c12)CCCC3` to `Cc1cccc(Oc2nc(CN3CCOCC3)nc3sc4c(c23)CCCC4)c1`, the “hERG current change (%, negative = inhibition) at 10uM” value falls from 17.3% to -29.7%.

First: CCCNC(=O)C1CCN(S(=O)(=O)c2ccc3nc4c(c(C(=O)O)c3c2)CCCCC4)CC1
Second: O=C(Cn1nnc(-c2cccc(C(F)(F)F)c2)n1)N1CCCCCC1
The “hERG current change (%, negative = inhibition) at 10uM” value of the first is higher: 16.2% for the first, -15.7% for the second.

First: CN(C)CCCNc1oc(/C=C/c2cccs2)nc1S(=O)(=O)c1ccccc1
Second: Cc1ccc(S(C)(=O)=O)cc1S(=O)(=O)Nc1cccc(Cl)c1
The “hERG current change (%, negative = inhibition) at 10uM” value of the first is lower: -39.5% for the first, -5.71% for the second.

Compared with `CC(=O)Nc1ccc(-c2cc(C(=O)O)c3ccc(C)cc3n2)cc1`, `CCN1/C(=C/c2ccc3ccc(C)cc3[n+]2CC)Sc2ccccc21.[I-]` is lower in “hERG current change (%, negative = inhibition) at 10uM” value: 8.4% for the first, -81.1% for the second.

First: CN1/C(=C\C(=O)COC(=O)c2ccco2)C(C)(C)c2ccccc21
Second: CCC(CC)NC(=O)/C=C/c1cccc([N+](=O)[O-])c1
The “hERG current change (%, negative = inhibition) at 10uM” value of the first is higher: -3.6% for the first, -8.05% for the second.

In the case of `CC1CC2(O)c3nonc3CCC2N1O` (stereo not drawn), the “hERG current change (%, negative = inhibition) at 10uM” value is reported as -14.8%.
